These are yes or no findings as the source states them, for the method shown. Binding seen in cells or lysates may run through a third protein. Some results given as binding are weak or reduced against the parent protein; the word gives no strength. Sequences can lack the tags named with a protein.
Target: T1, ATP synthase oligomycin sensitivity conferring protein (OSCP) (human (endogenous in HeLa)) (UniProt P48047)
T1 sequence: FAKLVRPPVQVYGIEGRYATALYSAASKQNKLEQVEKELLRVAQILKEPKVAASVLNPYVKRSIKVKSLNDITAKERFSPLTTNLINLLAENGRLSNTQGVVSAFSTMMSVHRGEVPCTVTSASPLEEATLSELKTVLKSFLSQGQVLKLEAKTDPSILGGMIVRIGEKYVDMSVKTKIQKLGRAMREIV
Experiment: proximity ligation; Duolink In Situ Red; CTR and IF1 KO HeLa cells fixed with 2% paraformaldehyde, permeabilized with 0.15% Triton X-100; pairs of mouse and rabbit primary antibodies; red dots per nucleus

Protein sequences, listed by entry. Tags and fused reporters are not part of them. Residues count along the entry.
UniProt P30405, residues 30-207: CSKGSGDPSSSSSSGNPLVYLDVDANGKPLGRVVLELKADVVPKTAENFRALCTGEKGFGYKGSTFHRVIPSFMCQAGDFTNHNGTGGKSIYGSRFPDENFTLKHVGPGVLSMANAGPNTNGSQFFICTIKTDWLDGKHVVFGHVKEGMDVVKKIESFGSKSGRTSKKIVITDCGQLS

For “cyclophilin D (CyPD) (from UniProt P30405 30-207)”, the binding was “binds”.

Reference: PMC9870916
